Laboratory results as given in article PMC12820563, “FoxP3 forms a head-to-head dimer in vivo and stabilizes its multimerization on adjacent microsatellites”.
The other results are listed elsewhere or left out.

Target: T1, MBP-FoxP1dN (Mus musculus, UniProt P58462 326-579)
T1 sequence: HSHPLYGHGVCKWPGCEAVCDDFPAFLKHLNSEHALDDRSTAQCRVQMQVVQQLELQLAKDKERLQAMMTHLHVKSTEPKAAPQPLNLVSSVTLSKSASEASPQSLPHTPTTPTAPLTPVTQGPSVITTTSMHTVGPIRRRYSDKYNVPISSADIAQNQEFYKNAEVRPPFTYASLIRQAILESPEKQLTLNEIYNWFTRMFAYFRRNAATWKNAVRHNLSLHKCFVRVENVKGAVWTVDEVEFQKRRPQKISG
Assay: PD-seq (MBP pull-down with sequencing); 20 mM Tris-HCl pH 7.5, 100 mM NaCl, 1.5 mM MgCl2, 0.4 uM protein, 0.1 uM dsDNA library, 30 min, room temperature, amylose pull-down; high values mean tight binding
Conditions: protein: recombinant; tags: His6-MBP; chain copies: 2; dsDNA, one strand shown
How it was run: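 Mouse FoxP3 or FoxP1 fragment lacking the N-terminus, His6-MBP-tagged and expressed in E. coli, was incubated at 0.4 µM with 0.1 µM Klenow-filled degenerate double-stranded DNA library for 30 min at room temperature in Tris pH 7.5 buffer with NaCl and MgCl2. Complexes captured on amylose resin were washed three times and their DNA sequenced on Illumina. Binding is reads-per-million enrichment of pull-down over input, replicates pooled.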

With “GATGATTGTTCTCCCAGCTGATGAATTATAGCCTTCGAGTAAACAAATTTTCCTAATCTTTCTGTTCAAGCGCCATCTAC” as the sequence, how does the binding signal read?
The binding signal was 0.976 RPM ratio (pull-down/input).

How did the binding signal turn out when “GATGATTGTTCTCCCAGCTGATGAATTGATCAGATCGAGTAAACAAATTTTCCTAATCTTTCTGTTCAAGCGCCATCTAC” was run?
The binding signal was 0.997 RPM ratio (pull-down/input).

Which binding signal does the source give for “GATGATTGTTCTCCCAGCTGATGAATTTCAATTGTCGAGTAAACAAATTTTCCTAATCTTTCTGTTCAAGCGCCATCTAC” here?
Its binding signal is 1.02 RPM ratio (pull-down/input).

Which binding signal does the source give for “GATGATTGTTCTCCCAGCTGATGAATTGCACAAATCGAGTAAACAAATTTTCCTAATCTTTCTGTTCAAGCGCCATCTAC” here?
Its binding signal is 1.47 RPM ratio (pull-down/input).

Which binding signal does the source give for “GATGATTGTTCTCCCAGCTGATGAATTTGAGACGTCGAGTAAACAAATTTTCCTAATCTTTCTGTTCAAGCGCCATCTAC” here?
The binding signal was 0.779 RPM ratio (pull-down/input).

Which binding signal does the source give for “GATGATTGTTCTCCCAGCTGATGAATTCGAATTGTCGAGTAAACAAATTTTCCTAATCTTTCTGTTCAAGCGCCATCTAC” here?
Its binding signal is 1.02 RPM ratio (pull-down/input).

How did the binding signal turn out when “GATGATTGTTCTCCCAGCTGATGAATTTTTATGATCGAGTAAACAAATTTTCCTAATCTTTCTGTTCAAGCGCCATCTAC” was run?
The binding signal was 1.08 RPM ratio (pull-down/input).

With “GATGATTGTTCTCCCAGCTGATGAATTGATAGAATCGAGTAAACAAATTTTCCTAATCTTTCTGTTCAAGCGCCATCTAC” as the sequence, how does the binding signal read?
Its binding signal is 1.06 RPM ratio (pull-down/input).

How did the binding signal turn out when “GATGATTGTTCTCCCAGCTGATGAATTTATATCATCGAGTAAACAAATTTTCCTAATCTTTCTGTTCAAGCGCCATCTAC” was run?
The binding signal was 1.27 RPM ratio (pull-down/input).

How did the binding signal turn out when “GATGATTGTTCTCCCAGCTGATGAATTGCCTGCCTCGAGTAAACAAATTTTCCTAATCTTTCTGTTCAAGCGCCATCTAC” was run?
Its binding signal is 0.98 RPM ratio (pull-down/input).

Which binding signal does the source give for “GATGATTGTTCTCCCAGCTGATGAATTACGGCCCTCGAGTAAACAAATTTTCCTAATCTTTCTGTTCAAGCGCCATCTAC” here?
The binding signal was 0.874 RPM ratio (pull-down/input).

How did the binding signal turn out when “GATGATTGTTCTCCCAGCTGATGAATTCCTGACCTCGAGTAAACAAATTTTCCTAATCTTTCTGTTCAAGCGCCATCTAC” was run?
Its binding signal is 0.746 RPM ratio (pull-down/input).

“GATGATTGTTCTCCCAGCTGATGAATTCTTCATATCGAGTAAACAAATTTTCCTAATCTTTCTGTTCAAGCGCCATCTAC” was tested. Which binding signal did it give?
Its binding signal is 0.961 RPM ratio (pull-down/input).

Which binding signal does the source give for “GATGATTGTTCTCCCAGCTGATGAATTTGGCAGATCGAGTAAACAAATTTTCCTAATCTTTCTGTTCAAGCGCCATCTAC” here?
Its binding signal is 0.898 RPM ratio (pull-down/input).

For “GATGATTGTTCTCCCAGCTGATGAATTTTCTGGTTCGAGTAAACAAATTTTCCTAATCTTTCTGTTCAAGCGCCATCTAC”, which binding signal is on record?
Its binding signal is 0.937 RPM ratio (pull-down/input).

“GATGATTGTTCTCCCAGCTGATGAATTGATAAATTCGAGTAAACAAATTTTCCTAATCTTTCTGTTCAAGCGCCATCTAC” was tested. Which binding signal did it give?
The binding signal was 1.24 RPM ratio (pull-down/input).

With “GATGATTGTTCTCCCAGCTGATGAATTTTCCCAGTCGAGTAAACAAATTTTCCTAATCTTTCTGTTCAAGCGCCATCTAC” as the sequence, how does the binding signal read?
Its binding signal is 0.905 RPM ratio (pull-down/input).

For “GATGATTGTTCTCCCAGCTGATGAATTATATTGTTCGAGTAAACAAATTTTCCTAATCTTTCTGTTCAAGCGCCATCTAC”, which binding signal is on record?
The binding signal was 2.08 RPM ratio (pull-down/input).

How did the binding signal turn out when “GATGATTGTTCTCCCAGCTGATGAATTCGTCTTTTCGAGTAAACAAATTTTCCTAATCTTTCTGTTCAAGCGCCATCTAC” was run?
The binding signal was 0.908 RPM ratio (pull-down/input).

For “GATGATTGTTCTCCCAGCTGATGAATTCAGCCTTTCGAGTAAACAAATTTTCCTAATCTTTCTGTTCAAGCGCCATCTAC”, which binding signal is on record?
The binding signal was 0.82 RPM ratio (pull-down/input).

How did the binding signal turn out when “GATGATTGTTCTCCCAGCTGATGAATTGGAACCCTCGAGTAAACAAATTTTCCTAATCTTTCTGTTCAAGCGCCATCTAC” was run?
Its binding signal is 0.758 RPM ratio (pull-down/input).

With “GATGATTGTTCTCCCAGCTGATGAATTGCAAGCATCGAGTAAACAAATTTTCCTAATCTTTCTGTTCAAGCGCCATCTAC” as the sequence, how does the binding signal read?
Its binding signal is 1.33 RPM ratio (pull-down/input).

With “GATGATTGTTCTCCCAGCTGATGAATTGATCTCTTCGAGTAAACAAATTTTCCTAATCTTTCTGTTCAAGCGCCATCTAC” as the sequence, how does the binding signal read?
Its binding signal is 0.926 RPM ratio (pull-down/input).

With “GATGATTGTTCTCCCAGCTGATGAATTAGGTTTGTCGAGTAAACAAATTTTCCTAATCTTTCTGTTCAAGCGCCATCTAC” as the sequence, how does the binding signal read?
The binding signal was 1.06 RPM ratio (pull-down/input).

“GATGATTGTTCTCCCAGCTGATGAATTTGGACCGTCGAGTAAACAAATTTTCCTAATCTTTCTGTTCAAGCGCCATCTAC” was tested. Which binding signal did it give?
The binding signal was 0.838 RPM ratio (pull-down/input).

How did the binding signal turn out when “GATGATTGTTCTCCCAGCTGATGAATTACCCCCATCGAGTAAACAAATTTTCCTAATCTTTCTGTTCAAGCGCCATCTAC” was run?
The binding signal was 1.01 RPM ratio (pull-down/input).

How did the binding signal turn out when “GATGATTGTTCTCCCAGCTGATGAATTTGCTGTTTCGAGTAAACAAATTTTCCTAATCTTTCTGTTCAAGCGCCATCTAC” was run?
Its binding signal is 1.33 RPM ratio (pull-down/input).

With “GATGATTGTTCTCCCAGCTGATGAATTATCCCATTCGAGTAAACAAATTTTCCTAATCTTTCTGTTCAAGCGCCATCTAC” as the sequence, how does the binding signal read?
The binding signal was 0.957 RPM ratio (pull-down/input).

With “GATGATTGTTCTCCCAGCTGATGAATTGCTTGACTCGAGTAAACAAATTTTCCTAATCTTTCTGTTCAAGCGCCATCTAC” as the sequence, how does the binding signal read?
The binding signal was 0.968 RPM ratio (pull-down/input).

For “GATGATTGTTCTCCCAGCTGATGAATTCAGGGCGTCGAGTAAACAAATTTTCCTAATCTTTCTGTTCAAGCGCCATCTAC”, which binding signal is on record?
Its binding signal is 0.838 RPM ratio (pull-down/input).

Which binding signal does the source give for “GATGATTGTTCTCCCAGCTGATGAATTTTAATACTCGAGTAAACAAATTTTCCTAATCTTTCTGTTCAAGCGCCATCTAC” here?
The binding signal was 0.974 RPM ratio (pull-down/input).

With “GATGATTGTTCTCCCAGCTGATGAATTGGACTCTTCGAGTAAACAAATTTTCCTAATCTTTCTGTTCAAGCGCCATCTAC” as the sequence, how does the binding signal read?
Its binding signal is 0.885 RPM ratio (pull-down/input).

Which binding signal does the source give for “GATGATTGTTCTCCCAGCTGATGAATTGAAAGATTCGAGTAAACAAATTTTCCTAATCTTTCTGTTCAAGCGCCATCTAC” here?
The binding signal was 0.861 RPM ratio (pull-down/input).

With “GATGATTGTTCTCCCAGCTGATGAATTAGACAGATCGAGTAAACAAATTTTCCTAATCTTTCTGTTCAAGCGCCATCTAC” as the sequence, how does the binding signal read?
Its binding signal is 0.93 RPM ratio (pull-down/input).

With “GATGATTGTTCTCCCAGCTGATGAATTGCCGCGCTCGAGTAAACAAATTTTCCTAATCTTTCTGTTCAAGCGCCATCTAC” as the sequence, how does the binding signal read?
Its binding signal is 0.893 RPM ratio (pull-down/input).

For “GATGATTGTTCTCCCAGCTGATGAATTCATGACCTCGAGTAAACAAATTTTCCTAATCTTTCTGTTCAAGCGCCATCTAC”, which binding signal is on record?
The binding signal was 0.835 RPM ratio (pull-down/input).

With “GATGATTGTTCTCCCAGCTGATGAATTCCGAGAGTCGAGTAAACAAATTTTCCTAATCTTTCTGTTCAAGCGCCATCTAC” as the sequence, how does the binding signal read?
The binding signal was 0.749 RPM ratio (pull-down/input).

For “GATGATTGTTCTCCCAGCTGATGAATTGTTGGAATCGAGTAAACAAATTTTCCTAATCTTTCTGTTCAAGCGCCATCTAC”, which binding signal is on record?
The binding signal was 1.12 RPM ratio (pull-down/input).

How did the binding signal turn out when “GATGATTGTTCTCCCAGCTGATGAATTCATTCGCTCGAGTAAACAAATTTTCCTAATCTTTCTGTTCAAGCGCCATCTAC” was run?
The binding signal was 0.948 RPM ratio (pull-down/input).

For “GATGATTGTTCTCCCAGCTGATGAATTGTCGGCTTCGAGTAAACAAATTTTCCTAATCTTTCTGTTCAAGCGCCATCTAC”, which binding signal is on record?
Its binding signal is 0.881 RPM ratio (pull-down/input).
